{"source": "the supplement of paper PMC8728848", "assay_in_all_cases": "glycan array binding signal (z-score within array); higher = stronger binding", "conditions_in_all_cases": "glycan notation: IUPAC condensed, linker removed", "key": {"[1]": {"target": "Gal(b1-3)GalNAc(a1-3)[Fuc(a1-2)]Gal(b1-4)Glc", "method_in_brief": "(§1)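 Columns mapping to the same glycan were averaged after glycan names were converted to IUPAC-condensed notation. The data come from 3228 arrays in the Consortium for Functional Glycomics database, limited to those with an available protein sequence. Binding is reported as a within-array Z-score averaged across arrays of one protein sequence and across linkers.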"}, "[2]": {"target": "Gal(b1-3)GalNAc(a1-3)[Fuc(a1-2)]Gal(b1-4)GlcNAc", "method_in_brief": "as §1"}, "Gal(b1-3)GalNAc(b1-3)Gal": {"target": "Gal(b1-3)GalNAc(b1-3)Gal", "method_in_brief": "as §1"}, "[3]": {"target": "Gal(b1-3)GalNAc(b1-3)Gal(a1-4)Gal(b1-4)Glc", "method_in_brief": "as §1"}, "[4]": {"target": "Gal(b1-3)GalNAc(b1-4)Gal(b1-4)Glc", "method_in_brief": "as §1"}, "[5]": {"target": "Gal(b1-3)GalNAc(b1-4)[Neu5Ac(a2-3)]Gal(b1-4)Glc", "method_in_brief": "as §1"}, "Gal(b1-3)GlcNAc": {"target": "Gal(b1-3)GlcNAc", "method_in_brief": "as §1"}, "[6]": {"target": "Gal(b1-3)GlcNAc(a1-3)Gal(b1-4)GlcNAc", "method_in_brief": "as §1"}, "[7]": {"target": "Gal(b1-3)GlcNAc(a1-6)Gal(b1-4)GlcNAc", "method_in_brief": "as §1"}, "Gal(b1-3)GlcNAc(b1-2)Man": {"target": "Gal(b1-3)GlcNAc(b1-2)Man", "method_in_brief": "as §1"}, "[8]": {"target": "Gal(b1-3)GlcNAc(b1-2)Man(a1-3)[Gal(b1-3)GlcNAc(b1-2)Man(a1-6)]Man(b1-4)GlcNAc(b1-4)GlcNAc", "method_in_brief": "as §1"}, "[9]": {"target": "Gal(b1-3)GlcNAc(b1-2)Man(a1-3)[Gal(b1-3)GlcNAc(b1-2)Man(a1-6)]Man(b1-4)GlcNAc(b1-4)[Fuc(a1-6)]GlcNAc", "method_in_brief": "as §1"}, "[10]": {"target": "Gal(b1-3)GlcNAc(b1-2)Man(a1-3)[GlcNAc(b1-4)][Gal(b1-3)GlcNAc(b1-2)Man(a1-6)]Man(b1-4)GlcNAc(b1-4)GlcNAc", "method_in_brief": "as §1"}, "[11]": {"target": "Gal(b1-3)GlcNAc(b1-2)[Gal(b1-3)GlcNAc(b1-6)]Man(a1-6)[Gal(b1-3)GlcNAc(b1-2)Man(a1-3)]Man(b1-4)GlcNAc(b1-4)GlcNAc", "method_in_brief": "as §1"}, "[12]": {"target": "Gal(b1-3)GlcNAc(b1-3)Gal(b1-3)GlcNAc", "method_in_brief": "as §1"}, "[13]": {"target": "Gal(b1-3)GlcNAc(b1-3)Gal(b1-4)Glc", "method_in_brief": "as §1"}, "[14]": {"target": "Gal(b1-3)GlcNAc(b1-3)Gal(b1-4)GlcNAc", "method_in_brief": "as §1"}, "[15]": {"target": "Gal(b1-3)GlcNAc(b1-3)Gal(b1-4)GlcNAc(b1-2)Man(a1-3)[Gal(b1-3)GlcNAc(b1-3)Gal(b1-4)GlcNAc(b1-2)Man(a1-6)]Man(b1-4)GlcNAc(b1-4)GlcNAc", "method_in_brief": "as §1"}, "[16]": {"target": "Gal(b1-3)GlcNAc(b1-3)Gal(b1-4)GlcNAc(b1-2)[Gal(b1-3)GlcNAc(b1-3)Gal(b1-4)GlcNAc(b1-6)]Man(a1-6)[Gal(b1-3)GlcNAc(b1-3)Gal(b1-4)GlcNAc(b1-2)Man(a1-3)]Man(b1-4)GlcNAc(b1-4)[Fuc(a1-6)]GlcNAc", "method_in_brief": "as §1"}, "[17]": {"target": "Gal(b1-3)GlcNAc(b1-3)Gal(b1-4)GlcNAc(b1-3)Gal(b1-4)GlcNAc(b1-2)[Gal(b1-3)GlcNAc(b1-3)Gal(b1-4)GlcNAc(b1-3)Gal(b1-4)GlcNAc(b1-6)]Man(a1-6)[Gal(b1-3)GlcNAc(b1-3)Gal(b1-4)GlcNAc(b1-3)Gal(b1-4)GlcNAc(b1-2)Man(a1-3)]Man(b1-4)GlcNAc(b1-4)[Fuc(a1-6)]GlcNAc", "method_in_brief": "as §1"}, "[18]": {"target": "Gal(b1-3)GlcNAc(b1-3)Gal(b1-4)GlcNAc(b1-6)[Gal(b1-3)GlcNAc(b1-3)]Gal(b1-4)Glc", "method_in_brief": "as §1"}, "[19]": {"target": "Gal(b1-3)GlcNAc(b1-3)Gal(b1-4)[Fuc(a1-3)]GlcNAc", "method_in_brief": "as §1"}, "[20]": {"target": "Gal(b1-3)GlcNAc(b1-3)Gal(b1-4)[Fuc(a1-3)]GlcNAc(b1-6)[Gal(b1-3)GlcNAc(b1-3)]Gal(b1-4)Glc", "method_in_brief": "as §1"}, "[21]": {"target": "Gal(b1-3)GlcNAc(b1-3)GalNAc", "method_in_brief": "as §1"}, "[22]": {"target": "Gal(b1-3)GlcNAc(b1-6)Gal(b1-4)GlcNAc", "method_in_brief": "as §1"}, "[23]": {"target": "Gal(b1-3)GlcNAc(b1-6)GalNAc", "method_in_brief": "as §1"}, "[24]": {"target": "Gal(b1-3)GlcNAc(b1-6)[Gal(b1-3)]GalNAc", "method_in_brief": "as §1"}, "Gal(b1-3)GlcNAc6S": {"target": "Gal(b1-3)GlcNAc6S", "method_in_brief": "as §1"}, "[25]": {"target": "Gal(b1-3)[Fuc(a1-4)]GlcNAc", "method_in_brief": "as §1"}, "[26]": {"target": "Gal(b1-3)[Fuc(a1-4)]GlcNAc(b1-2)Man", "method_in_brief": "as §1"}, "[27]": {"target": "Gal(b1-3)[Fuc(a1-4)]GlcNAc(b1-2)Man(a1-3)[Gal(b1-3)[Fuc(a1-4)]GlcNAc(b1-2)Man(a1-6)]Man(b1-4)GlcNAc(b1-4)GlcNAc", "method_in_brief": "as §1"}, "[28]": {"target": "Gal(b1-3)[Fuc(a1-4)]GlcNAc(b1-2)Man(a1-3)[Gal(b1-3)[Fuc(a1-4)]GlcNAc(b1-2)Man(a1-6)]Man(b1-4)GlcNAc(b1-4)[Fuc(a1-6)]GlcNAc", "method_in_brief": "as §1"}, "[29]": {"target": "Gal(b1-3)[Fuc(a1-4)]GlcNAc(b1-3)Gal(b1-3)[Fuc(a1-4)]GlcNAc", "method_in_brief": "as §1"}, "[30]": {"target": "Gal(b1-3)[Fuc(a1-4)]GlcNAc(b1-3)Gal(b1-4)GlcNAc", "method_in_brief": "as §1"}, "[31]": {"target": "Gal(b1-3)[Fuc(a1-4)]GlcNAc(b1-3)Gal(b1-4)[Fuc(a1-3)]GlcNAc", "method_in_brief": "as §1"}, "[32]": {"target": "Gal(b1-3)[Fuc(a1-4)]GlcNAc(b1-6)GalNAc", "method_in_brief": "as §1"}, "[33]": {"target": "Gal(b1-3)[GlcNAc(b1-6)]GalNAc", "method_in_brief": "as §1"}, "[34]": {"target": "Gal(b1-3)[Neu5Ac(a2-6)]GalNAc", "method_in_brief": "as §1"}, "[35]": {"target": "Gal(b1-3)[Neu5Ac(a2-6)]GlcNAc(b1-4)Gal(b1-4)Glc", "method_in_brief": "as §1"}, "[36]": {"target": "Gal(b1-3)[Neu5Ac(a2-6)]GlcNAc(b1-6)Gal(b1-4)Glc", "method_in_brief": "as §1"}, "[37]": {"target": "Gal(b1-3)[Neu5Ac(b2-6)]GalNAc", "method_in_brief": "as §1"}, "Gal(b1-4)Gal": {"target": "Gal(b1-4)Gal", "method_in_brief": "as §1"}, "[38]": {"target": "Gal(b1-4)GalNAc(a1-3)[Fuc(a1-2)]Gal(b1-4)GlcNAc", "method_in_brief": "as §1"}, "[39]": {"target": "Gal(b1-4)GalNAc(b1-3)[Fuc(a1-2)]Gal(b1-4)GlcNAc", "method_in_brief": "as §1"}, "Gal(b1-4)Glc": {"target": "Gal(b1-4)Glc", "method_in_brief": "as §1"}}, "note": "This is one part of the list."}
{"binder": "LSECtin (Homo sapiens), Q6UXB4 (protein) MDTTRYSKWGGSSEEVPGGPWGRWVHWSRRPLFLALAVLVTTVLWAVILSILLSKASTERAALLDGHDLLRTNASKQTAALGALKEEVGDCHSCCSGTQAQLQTTRAELGEAQAKLMEQESALRELRERVTQGLAEAGRGREDVRTELFRALEAVRLQNNSCEPCPTSWLSFEGSCYFFSVPKTTWAAAQDHCADASAHLVIVGGLDEQGFLTRNTRGRGYWLGLRAVRHLGKVQGYQWVDGVSLSFSHWNQGEPNDAWGRENCVMMLHTGLWNDAPCDSEKDGWICEKRHNC", "values": [{"measurement": "glycan array binding signal (z-score)", "setting": "[1]", "result": -0.259}, {"measurement": "glycan array binding signal (z-score)", "setting": "[2]", "result": -0.243}, {"measurement": "glycan array binding signal (z-score)", "setting": "Gal(b1-3)GalNAc(b1-3)Gal", "result": -0.134}, {"measurement": "glycan array binding signal (z-score)", "setting": "[3]", "result": -0.22}, {"measurement": "glycan array binding signal (z-score)", "setting": "[4]", "result": -0.191}, {"measurement": "glycan array binding signal (z-score)", "setting": "[5]", "result": -0.148}, {"measurement": "glycan array binding signal (z-score)", "setting": "Gal(b1-3)GlcNAc", "result": 0.042}, {"measurement": "glycan array binding signal (z-score)", "setting": "[6]", "result": -0.136}, {"measurement": "glycan array binding signal (z-score)", "setting": "[7]", "result": -0.138}, {"measurement": "glycan array binding signal (z-score)", "setting": "Gal(b1-3)GlcNAc(b1-2)Man", "result": 0.205}, {"measurement": "glycan array binding signal (z-score)", "setting": "[8]", "result": 0.233}, {"measurement": "glycan array binding signal (z-score)", "setting": "[9]", "result": 0.003}, {"measurement": "glycan array binding signal (z-score)", "setting": "[10]", "result": -0.142}, {"measurement": "glycan array binding signal (z-score)", "setting": "[11]", "result": -0.06}, {"measurement": "glycan array binding signal (z-score)", "setting": "[12]", "result": -0.215}, {"measurement": "glycan array binding signal (z-score)", "setting": "[13]", "result": -0.099}, {"measurement": "glycan array binding signal (z-score)", "setting": "[14]", "result": -0.182}, {"measurement": "glycan array binding signal (z-score)", "setting": "[15]", "result": -0.122}, {"measurement": "glycan array binding signal (z-score)", "setting": "[16]", "result": -0.133}, {"measurement": "glycan array binding signal (z-score)", "setting": "[17]", "result": -0.127}, {"measurement": "glycan array binding signal (z-score)", "setting": "[18]", "result": -0.119}, {"measurement": "glycan array binding signal (z-score)", "setting": "[19]", "result": -0.132}, {"measurement": "glycan array binding signal (z-score)", "setting": "[20]", "result": -0.13}, {"measurement": "glycan array binding signal (z-score)", "setting": "[21]", "result": -0.134}, {"measurement": "glycan array binding signal (z-score)", "setting": "[22]", "result": -0.137}, {"measurement": "glycan array binding signal (z-score)", "setting": "[23]", "result": -0.133}, {"measurement": "glycan array binding signal (z-score)", "setting": "[24]", "result": -0.134}, {"measurement": "glycan array binding signal (z-score)", "setting": "Gal(b1-3)GlcNAc6S", "result": -0.137}, {"measurement": "glycan array binding signal (z-score)", "setting": "[25]", "result": -0.182}, {"measurement": "glycan array binding signal (z-score)", "setting": "[26]", "result": -0.136}, {"measurement": "glycan array binding signal (z-score)", "setting": "[27]", "result": 0.122}, {"measurement": "glycan array binding signal (z-score)", "setting": "[28]", "result": -0.157}, {"measurement": "glycan array binding signal (z-score)", "setting": "[29]", "result": -0.088}, {"measurement": "glycan array binding signal (z-score)", "setting": "[30]", "result": -0.162}, {"measurement": "glycan array binding signal (z-score)", "setting": "[31]", "result": -0.195}, {"measurement": "glycan array binding signal (z-score)", "setting": "[32]", "result": -0.135}, {"measurement": "glycan array binding signal (z-score)", "setting": "[33]", "result": 0.004}, {"measurement": "glycan array binding signal (z-score)", "setting": "[34]", "result": -0.201}, {"measurement": "glycan array binding signal (z-score)", "setting": "[35]", "result": -0.141}, {"measurement": "glycan array binding signal (z-score)", "setting": "[36]", "result": -0.085}, {"measurement": "glycan array binding signal (z-score)", "setting": "[37]", "result": -0.219}, {"measurement": "glycan array binding signal (z-score)", "setting": "Gal(b1-4)Gal", "result": -0.132}, {"measurement": "glycan array binding signal (z-score)", "setting": "[38]", "result": -0.187}, {"measurement": "glycan array binding signal (z-score)", "setting": "[39]", "result": -0.19}, {"measurement": "glycan array binding signal (z-score)", "setting": "Gal(b1-4)Glc", "result": -0.192}]}
